# Test results published in the supplement of paper PMC8728848.
# The list shows a part of the results.
# Assays:
# Experiment in all cases: glycan array binding signal (z-score within array); higher = stronger binding
# Conditions in all cases: glycan notation: IUPAC condensed, linker removed; mutation: E227A
# [1] = molecular target: Neu5Ac(a2-6)GlcNAc(b1-4)GlcNAc(b1-4)GlcNAc
# In short: (§1)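 Columns mapping to the same glycan were averaged after glycan names were converted to IUPAC-condensed notation. The data come from 3228 arrays in the Consortium for Functional Glycomics database, limited to those with an available protein sequence. Binding is reported as a within-array Z-score averaged across arrays of one protein sequence and across linkers.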
# Neu5Ac(a2-8)Neu5Ac = molecular target: Neu5Ac(a2-8)Neu5Ac
# In short: as §1
# [2] = molecular target: Neu5Ac(a2-8)Neu5Ac(a2-3)Gal(b1-3)GalNAc(b1-4)[Neu5Ac(a2-3)]Gal(b1-4)Glc
# In short: as §1
# [3] = molecular target: Neu5Ac(a2-8)Neu5Ac(a2-3)Gal(b1-3)GalNAc(b1-4)[Neu5Ac(a2-8)Neu5Ac(a2-3)]Gal(b1-4)Glc
# In short: as §1
# [4] = molecular target: Neu5Ac(a2-8)Neu5Ac(a2-3)Gal(b1-4)Glc
# In short: as §1
# [5] = molecular target: Neu5Ac(a2-8)Neu5Ac(a2-3)Gal(b1-4)GlcNAc
# In short: as §1
# [6] = molecular target: Neu5Ac(a2-8)Neu5Ac(a2-3)[Gal(b1-3)GalNAc(b1-4)]Gal(b1-4)Glc
# In short: as §1
# [7] = molecular target: Neu5Ac(a2-8)Neu5Ac(a2-3)[GalNAc(b1-4)]Gal(b1-4)Glc
# In short: as §1
# [8] = molecular target: Neu5Ac(a2-8)Neu5Ac(a2-8)Neu5Ac
# In short: as §1
# [9] = molecular target: Neu5Ac(a2-8)Neu5Ac(a2-8)Neu5Ac(a2-3)Gal(b1-4)Glc
# In short: as §1
# [10] = molecular target: Neu5Ac(a2-8)Neu5Ac(a2-8)Neu5Ac(a2-3)[Gal(b1-3)GalNAc(b1-4)]Gal(b1-4)Glc
# In short: as §1
# [11] = molecular target: Neu5Ac(a2-8)Neu5Ac(a2-8)Neu5Ac(a2-3)[GalNAc(b1-4)]Gal(b1-4)Glc
# In short: as §1
# [12] = molecular target: Neu5Ac(a2-8)Neu5Ac(a2-8)Neu5Ac(a2-8)Neu5Ac(a2-3)[GalNAc(b1-4)]Gal(b1-4)Glc
# In short: as §1
# [13] = molecular target: Neu5Ac(a2-8)Neu5Gc(a2-3)Gal(b1-4)GlcNAc
# In short: as §1
# [14] = molecular target: Neu5Ac(b2-6)Gal(b1-4)GlcNAc
# In short: as §1
# Neu5Ac(b2-6)GalNAc = molecular target: Neu5Ac(b2-6)GalNAc
# In short: as §1
# [15] = molecular target: Neu5Ac9Ac(a2-3)Gal(b1-3)GlcNAc
# In short: as §1
# [16] = molecular target: Neu5Ac9Ac(a2-3)Gal(b1-4)GlcNAc
# In short: as §1
# [17] = molecular target: Neu5Ac9Ac(a2-6)Gal(b1-4)GlcNAc
# In short: as §1
# [18] = molecular target: Neu5Gc(a2-3)Gal(b1-3)GlcNAc
# In short: as §1
# [19] = molecular target: Neu5Gc(a2-3)Gal(b1-3)[Fuc(a1-4)]GlcNAc
# In short: as §1
# Neu5Gc(a2-3)Gal(b1-4)Glc = molecular target: Neu5Gc(a2-3)Gal(b1-4)Glc
# In short: as §1
# [20] = molecular target: Neu5Gc(a2-3)Gal(b1-4)GlcNAc
# In short: as §1
# [21] = molecular target: Neu5Gc(a2-3)Gal(b1-4)GlcNAc(b1-3)Gal(b1-4)GlcNAc(b1-2)Man(a1-3)[Neu5Gc(a2-3)Gal(b1-4)GlcNAc(b1-3)Gal(b1-4)GlcNAc(b1-2)Man(a1-6)]Man(b1-4)GlcNAc(b1-4)GlcNAc
# In short: as §1
# [22] = molecular target: Neu5Gc(a2-3)Gal(b1-4)[Fuc(a1-3)]GlcNAc
# In short: as §1
# [23] = molecular target: Neu5Gc(a2-6)Gal(b1-4)GlcNAc
# In short: as §1
# Neu5Gc(a2-6)GalNAc = molecular target: Neu5Gc(a2-6)GalNAc
# In short: as §1
# [24] = molecular target: Neu5Gc(a2-8)Neu5Ac(a2-3)Gal(b1-4)GlcNAc
# In short: as §1
# [25] = molecular target: Neu5Gc(a2-8)Neu5Gc(a2-3)Gal(b1-4)GlcNAc
# In short: as §1
# [26] = molecular target: Neu5Gc(a2-8)Neu5Gc(a2-3)Gal(b1-4)GlcNAc(b1-3)Gal(b1-4)GlcNAc
# In short: as §1
# [27] = molecular target: Neu5Gc(a2-8)Neu5Gc(a2-6)Gal(b1-4)GlcNAc
# In short: as §1
# [28] = molecular target: Neu5Gc(b2-6)Gal(b1-4)GlcNAc
# In short: as §1
binder,measurement,setting,value
"Epa1-NP-mutant-E227A (Candida glabrata), Q6VBJ0 (protein) MILNPALFLNKCVCIYTTLILLLLTNGGYATSSNDISLASKDPTTFPLGCSPDITTPKKGLSMELYSYDFRKKGSYPCWDAAYLDPNYPRTGYKSHRLLAKVDGVTGNINFYYHATKGCTPQLGHLPASYNYPKPLTMTNFTMLLYGYFRPKVTGFHTFTISADDLLFVNFGAGNAFDCCRRDSSADHFGNYQAYAIWGSKTAKDELTVHLDAGVYYPIRLFYNNRAYDGALSFTFKTESNENTVSDFSEYFFSLDDTEEGCPGLISYDSSCASVKTSKIIGIDYHTETPNENLVPITKTIYHLGIPCTGTTTTPLCGSGFYDPLANKCVTINTSSTSSVTKTTSHTTSKEVSFHSSISSQKTLIPKSIPSPYGPIKSQSIPTEMETSSEISSSEYAFSDVISTPSHSPYTKKHSSLNSSSYTSTVIHSLTSYSISQGIFSTSLSEQNITSKSSTDKFSTATSMSNNITQSSIIISQFSTNNENYTTTSMHTSSDKISTETLNNSISTTTSILFSNSSTILKNNTTIISSDKDTHYHPVNPTIVCSTNKTEIICASITQPSISNSNNHWSSSVLKFNSTTVRSTLPSSAGSNETSINVPFSSSTESNTSTSSTSTSNSKMVRSTLPSSAGSNETSISVPFSSSTESNTSTSSTSTSNSKMVRSTLPSSAGSNETSINVPFSSSTESNTSTSSTSTSNSKTVRSTPFSSAGIIMTSLSQRNNKSASSYASSNSKCYNTADSCRKVHSTPSYLLTSSYTSEGVDYDCSLVSTKLKINDTNCVNNKHTTKSCLKTSVTTTIPTLEIKTARKSSSNTIGLHSYPTSSPNKSISSAPIIGYISSFKTIKTASPSYQTSDLTTITTITSLNNPGSTAVENTHESNDKSRKTSSNDISSKHSVIKETKDAVESSNKSHQTNTLKCSSIIIASSSHNSYESLGGTTLTLTLSKVYSPQNNDTLPFLEISEVNPSRTVLPESSKMMQYLTSTEERNKTARNTIATNIVSISTFHFEGEGNAIRMGYTQLLLMLIGIIVMNIGT",glycan array binding signal (z-score),[1],-0.216
same,glycan array binding signal (z-score),Neu5Ac(a2-8)Neu5Ac,-0.293
same,glycan array binding signal (z-score),[2],-0.194
same,glycan array binding signal (z-score),[3],-0.168
same,glycan array binding signal (z-score),[4],-0.193
same,glycan array binding signal (z-score),[5],-0.188
same,glycan array binding signal (z-score),[6],0.41
same,glycan array binding signal (z-score),[7],-0.211
same,glycan array binding signal (z-score),[8],-0.204
same,glycan array binding signal (z-score),[9],-0.199
same,glycan array binding signal (z-score),[10],-0.194
same,glycan array binding signal (z-score),[11],-0.146
same,glycan array binding signal (z-score),[12],-0.202
same,glycan array binding signal (z-score),[13],-0.203
same,glycan array binding signal (z-score),[14],-0.228
same,glycan array binding signal (z-score),Neu5Ac(b2-6)GalNAc,-0.203
same,glycan array binding signal (z-score),[15],-0.215
same,glycan array binding signal (z-score),[16],-0.209
same,glycan array binding signal (z-score),[17],-0.209
same,glycan array binding signal (z-score),[18],-0.2
same,glycan array binding signal (z-score),[19],-0.208
same,glycan array binding signal (z-score),Neu5Gc(a2-3)Gal(b1-4)Glc,-0.165
same,glycan array binding signal (z-score),[20],-0.188
same,glycan array binding signal (z-score),[21],-0.178
same,glycan array binding signal (z-score),[22],-0.144
same,glycan array binding signal (z-score),[23],-0.195
same,glycan array binding signal (z-score),Neu5Gc(a2-6)GalNAc,-0.162
same,glycan array binding signal (z-score),[24],-0.189
same,glycan array binding signal (z-score),[25],-0.182
same,glycan array binding signal (z-score),[26],-0.222
same,glycan array binding signal (z-score),[27],-0.213
same,glycan array binding signal (z-score),[28],-0.198
